Laboratory results published in patent publication US20260201007A1 (University of California, published 2026).

T1: IL2Rα ectodomain with a C-terminal 6×His tag (UniProt P01589 22-240, limits assumed)
T1 construct: extracellular domain; Purified on Nickel-NTA; Neither the species nor the construct limits are stated; also called CD25
T1 sequence: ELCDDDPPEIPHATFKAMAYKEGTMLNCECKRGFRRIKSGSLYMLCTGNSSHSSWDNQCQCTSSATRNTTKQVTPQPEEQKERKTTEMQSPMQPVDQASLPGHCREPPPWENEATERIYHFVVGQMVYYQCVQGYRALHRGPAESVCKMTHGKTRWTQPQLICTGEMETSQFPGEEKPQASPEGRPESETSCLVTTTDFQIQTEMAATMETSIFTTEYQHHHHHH

T2: IL2Rβ/γ Fc heterodimer (UniProt P14784 27-240; P31785 23-262)
T2 construct: extracellular domain; also called IL2Rβ/γc; not shown: heterodimerizing Fc portion
T2 sequence 1: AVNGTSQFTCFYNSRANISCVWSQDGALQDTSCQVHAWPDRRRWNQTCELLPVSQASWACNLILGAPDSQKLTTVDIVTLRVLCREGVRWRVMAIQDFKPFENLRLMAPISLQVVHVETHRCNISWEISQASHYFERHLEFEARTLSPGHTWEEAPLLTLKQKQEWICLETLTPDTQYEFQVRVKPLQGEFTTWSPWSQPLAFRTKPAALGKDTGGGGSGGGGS
T2 sequence 2: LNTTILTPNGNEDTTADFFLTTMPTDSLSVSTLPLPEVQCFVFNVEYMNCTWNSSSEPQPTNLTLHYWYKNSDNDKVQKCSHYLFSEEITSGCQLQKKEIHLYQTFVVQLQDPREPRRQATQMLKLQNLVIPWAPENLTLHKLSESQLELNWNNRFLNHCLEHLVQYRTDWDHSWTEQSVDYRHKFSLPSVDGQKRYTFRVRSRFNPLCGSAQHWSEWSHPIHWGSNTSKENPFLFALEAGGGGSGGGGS


Assays:
[1] = biological target: T1, IL2Rα ectodomain with a C-terminal …; assay: Octet BLI; biotinylated monomeric IL-2/Fc on streptavidin sensors, IL2Rα in solution; equilibrium binding
IL2Rβ/γ Fc heterodimer = biological target: T2, IL2Rβ/γ Fc heterodimer; assay: Octet BLI; biotinylated monomeric IL-2/Fc on streptavidin sensors, IL2Rβ/γ Fc heterodimer in solution; 1:1 kinetic fit

Row | Binder | Kd [1] | Kd (IL2Rβ/γ Fc heterodimer)
1 | WT N-term (Fc fusion, biotinylated with BirA enzyme (AviTag), also called WT N-term (Mono); monomeric biotinylated IL-2/Fc fusion, wild type, IL-2 at the N-terminus of Fc) not shown | 0.19 nM | 5.3 nM
2 | F42Q N-Term (Fc fusion, biotinylated with BirA enzyme (AviTag), The mutation is numbered on mature IL-2; also called F42Q N-Term (Mono)) not shown | 9.48 nM | 2.81 nM
3 | WT C-term (Fc fusion, biotinylated with BirA enzyme (AviTag), also called WT C-term (Mono); monomeric biotinylated IL-2/Fc fusion, wild type, IL-2 at the C-terminus of Fc) not shown | 0.54 nM | 3.04 nM
4 | N88D C-term (Fc fusion, biotinylated with BirA enzyme (AviTag), The mutation is numbered on mature IL-2; also called N88D C-term (Mono); monomeric N88D) not shown | 1.01 nM | 24 nM

Other lines, results leading:

Row | Kd [1] | Kd (IL2Rβ/γ Fc heterodimer) | Binder
5 | 0.71 nM | 4 nM | R38Q N-term (Fc fusion, biotinylated with BirA enzyme (AviTag), The mutation is numbered on mature IL-2; also called R38Q N-term (Mono)) not shown
6 | 0.43 nM | 22.4 nM | H16N N-term (Fc fusion, biotinylated with BirA enzyme (AviTag), The mutation is numbered on mature IL-2; also called H16N N-term (Mono)) not shown
7 | 0.69 nM |  | V91K C-term (Fc fusion, biotinylated with BirA enzyme (AviTag), also called V91K C-term (Mono)) not shown
